Assay results taken from PubChem BioAssay AID463173 (ICCB-Longwood Screening Facility, Harvard Medical School, 2010).
In all, about 52,000 compounds went through this assay and about 1,700 (3.3%) were called active. Rule as the data show it: active = survival mostly below about 52% (no sharp cut-off); inactive = mostly above about 56%. Some of the results follow.

The compounds below were run on Wild type (assay: growth inhibition of S. aureus wild type versus tarO mutant, primary screen, teichoic acid synthesis inhibitors, RN4220, OD600 (AID 463173)). Settings: S. aureus RN4220 wild type/DeltatarO growth, OD600, 18 h, hits give low values, screened at 18.75 µg/mL (by protocol).
In the case of `Cc1ccc(NC(=O)Cn2c(=O)n(Cc3ccco3)c(=O)c3ccccc32)cc1`, the survival is reported as inactive: 93%. With `CCN(CC)CCCNC(=O)c1cc(-c2ccc(OC)c(OC)c2)on1` the survival was inactive: 73%. For `CC1CN(C(=O)N2CCC(C(=O)NC3CCCCCC3)CC2)c2cc(Cl)ccc2O1` (centres undefined), the survival was inactive: 85%. `Cc1cc(C)n2nc(CNS(=O)(=O)c3ccc(Cl)cc3)nc2n1` was tested, and the survival was inactive: 80%. For `Cc1ccc(NC(=O)C2CCCN2S(=O)(=O)c2cccc3cccnc23)cc1` (centres undefined), the survival was inactive: 73%. For `COc1ccc(-c2ccnc3c(-c4ccc(F)cc4)c(C)nn23)cc1OC`, the survival was inactive: 79%. With `COc1cc(C(=O)NC2CC(=O)N(c3cccc(F)c3)C2)cc(OC)c1OC` (centres undefined) the survival was inactive: 77%. With `O=C(Cn1cc(SCc2cccc(Cl)c2)c2ccccc21)N1CCOCC1` the survival was inactive: 80%. For `O=c1[nH]c(SCc2ccc(F)cc2)nc2c1CCCC2`, the survival was inactive: 97%. For `CCn1c(SCCN2CCCC2)nnc1C1CCCN(S(C)(=O)=O)C1` (centres undefined), the survival was inactive: 127%. `COc1ccc(CNC(=O)C2CCCN(S(=O)(=O)c3ccc4c(c3)CCCN4C(C)=O)C2)cc1` (centres undefined) was tested, and the survival was inactive: 68%. With `CCc1nnc2c(NCc3ccc(F)cc3)nc3ccccc3n12` the survival was inactive: 126%. `O=c1/c(=C/c2ccc(Br)cc2)sc2nncn12` was tested, and the survival was inactive: 125%. In the case of `COc1ccc(NC(=O)c2ccco2)cc1NC(=O)COc1cc(C)cc(C)c1`, the survival is reported as inactive: 129%. For `CCC(=O)N1CCc2cc(Br)cc(S(=O)(=O)N3CCN(c4ccccc4)CC3)c21`, the survival was inactive: 84%. With `CCOc1ccc2nc(N3CCCC(C(=O)Nc4ccc(Br)c(C)c4)C3)sc2c1` (centres undefined) the survival was inactive: 85%. With `COc1ccccc1N1CCN(S(=O)(=O)c2ccc(F)c(C(=O)Nc3ccc(C)c(F)c3)c2)CC1` the survival was inactive: 74%. With `COc1ccc(CCNC(=O)c2cc(Sc3cccc(Cl)c3)nc3ccccc23)cc1OC` the survival was inactive: 69%. In the case of `COc1ccc2c(c1)CC(C(=O)N1CCC(C(N)=O)CC1)CO2` (centres undefined), the survival is reported as inactive: 70%. `COc1ccc2c(c1)NC(c1ccc(OCC(C)C)cc1)=NC(c1ccncc1)=N2` was tested, and the survival was inactive: 129%. With `CCOc1ccc(-c2n[nH]c3c2C(c2ccccc2OC)N(c2ccc(Br)cc2)C3=O)cc1` (centres undefined) the survival was inactive: 98%. With `COc1ccccc1N1CCN(C(=O)c2oc3ccccc3c2NC(=O)C(C)Oc2ccccc2)CC1` (centres undefined) the survival was inactive: 73%. For `Cc1ccc(C(C)C)c(OCCn2cc(C(=O)c3ccco3)c3ccccc32)c1`, the survival was inactive: 30%. In the case of `O=C(Nc1cc(Cl)cc(Cl)c1)c1ccc(F)c(S(=O)(=O)N2CCCCCC2)c1`, the survival is reported as inactive: 146%. `CN1C(C(=O)Nc2ccc(OC(F)(F)F)cc2)=CC(c2ccc3c(c2)OCO3)=NS1(=O)=O` was tested, and the survival was inactive: 86%. With `O=C(Cn1cccc1C(=O)c1ccccc1)NCc1ccc(F)cc1` the survival was inactive: 91%. With `COc1cc2c(=O)n(Cc3ccccc3)c(=O)n(CC(=O)Nc3cc(C(F)(F)F)ccc3Cl)c2cc1OC` the survival was inactive: 136%. For `CCN(CC)c1ccc(NS(=O)(=O)c2ccc3c(c2)CCCN3C(C)=O)c(C)c1`, the survival was inactive: 71%. In the case of `COC(=O)c1cc2oc(C)cc2n1Cc1c(C)cc(C)cc1C`, the survival is reported as inactive: 33%. In the case of `CC(C)c1cc(N)cc(C(C)C)c1O`, the survival is reported as inactive: 112%. For `COc1cc2nc(SCC(=O)Nc3ccc(F)cc3)n3nc(CCn4c(C)nc5ccccc54)nc3c2cc1OC`, the survival was inactive: 141%. In the case of `COc1ccc(C2c3c(n(C)c4ccccc34)C(=O)N2CC(=O)Nc2ccc(Cl)cc2)cc1` (centres undefined), the survival is reported as inactive: 83%. `CCc1ccc(N2CCn3c2nc2c3c(=O)n(Cc3cccc(C)c3)c(=O)n2C)cc1` was tested, and the survival was inactive: 82%. `CCOC(=O)c1c(C)oc2ncnc(NCCc3ccccc3)c12` was tested, and the survival was inactive: 83%. For `Cc1ccc(NC(=O)C(=O)NCC(c2ccc3c(c2)OCO3)N2CCOCC2)c(C)c1` (centres undefined), the survival was inactive: 71%. In the case of `O=C(CSc1ncc2c(n1)-c1ccccc1N(Cc1ccc(F)cc1)S2(=O)=O)c1ccc(Br)cc1`, the survival is reported as inactive: 72%. `CCCN1CCN(CCNC(=O)Nc2cc(OC)cc(OC)c2)CC1` was tested, and the survival was inactive: 84%. For `Cc1ccc(OC(=O)c2snnc2C)cc1C`, the survival was inactive: 117%. `Cc1cccc(NC(=O)CSc2nc3ccc(NC(=O)c4cccs4)cc3s2)c1` was tested, and the survival was inactive: 69%. With `CC(C)c1ccc(OCc2cc(=O)n3c4c(sc3n2)CCCC4)cc1` the survival was inactive: 75%. In the case of `O=C(CSc1nc(-c2ccccc2)cc(=O)[nH]1)c1ccccc1`, the survival is reported as inactive: 119%. For `COC(=O)c1ccccc1NC(=O)CSc1nnnn1-c1ccc2c(c1)OCO2`, the survival was inactive: 112%. With `CCc1ccc(Nc2cc(C)nc3nc(Cc4ccc(Cl)cc4)nn23)cc1` the survival was inactive: 109%. `COc1ccc(OCC(=O)Nc2cc(-c3cccc(Cl)c3)nn2-c2ccccc2)cc1` was tested, and the survival was inactive: 75%. For `O=C(NC1CCCCC1)c1ccc2c(c1)sc1nc(-c3ccccc3)cn12`, the survival was inactive: 83%. `N#Cc1ccc(C(=O)N2CCN(c3nc4ccc(F)cc4s3)CC2)cc1` was tested, and the survival was inactive: 75%. With `COc1ccccc1NC(=O)CN(c1ccc(C(C)C)cc1)S(=O)(=O)c1c(C)noc1C` the survival was inactive: 88%. In the case of `CCOC(=O)c1ccc(CSc2nnc3cc(C)c4ccccc4n23)cc1`, the survival is reported as inactive: 108%. In the case of `COc1cc2c(cc1OC)C(c1ccc(Cl)cc1)N(c1ccc(C)c(F)c1)C(=O)C2` (centres undefined), the survival is reported as inactive: 53%. With `COc1ccc(-c2oc3ncn4nc(-c5ccc(Cl)cc5)nc4c3c2-c2ccc(OC)cc2)cc1` the survival was inactive: 69%. For `CCN(CC)CCN(C(=O)c1ccco1)c1nc2c(C)cccc2s1`, the survival was inactive: 98%. For `CCOc1cccc(C(=O)Nc2nnc(S(=O)(=O)N(C)c3ccc(C)cc3)s2)c1`, the survival was inactive: 76%. In the case of `COc1ccc(NC(=O)CC2C(=O)N(c3ccccc3)C(=O)N2CCC2=CCCCC2)cc1` (centres undefined), the survival is reported as inactive: 71%. In the case of `Cc1ccc2c(c1)c(=O)c(C(=O)c1ccccc1)cn2Cc1ccccc1F`, the survival is reported as inactive: 78%. For `COc1ccc(S(=O)(=O)N(CC(=O)Nc2ccc(OC)cc2OC)c2ccc(Cl)cc2)cc1`, the survival was inactive: 131%. For `COc1cc(NC(=O)C2CCN(S(=O)(=O)c3c(C)noc3/C=C/c3cccs3)CC2)cc(OC)c1`, the survival was inactive: 78%. `CCN1C(=O)c2ccccc2S(=O)c2ccc(C(=O)NCc3ccc(C)cc3)cc21` (centres undefined) was tested, and the survival was inactive: 85%. In the case of `Cc1c(CNC2CCC(C)CC2)c(C(=O)O)c(C)n1Cc1ccccc1F` (centres undefined), the survival is reported as inactive: 106%. `COc1ccc(-c2nc(SCC(=O)c3ccc(Br)cc3)n[nH]2)cc1` was tested, and the survival was inactive: 150%. With `CCOc1ccccc1C1C(C(N)=O)=C(C)Nc2nc(-c3ccccc3Cl)nn21` (centres undefined) the survival was inactive: 130%. `Cc1cccc(N2CC(c3nc4ccc(C)cc4[nH]3)CC2=O)c1` (centres undefined) was tested, and the survival was inactive: 97%. `CCN1C(=O)C2(C(C#N)=C(N)SC(N)=C2C#N)c2ccccc21` was tested, and the survival was inactive: 64%. For `CCC1CN(C(=O)Nc2ccccc2C(F)(F)F)c2ccccc2O1` (centres undefined), the survival was inactive: 87%. In the case of `COc1ccc(/C=C(/C#N)c2nc(-c3cc4ccccc4oc3=O)cs2)cc1`, the survival is reported as inactive: 91%. With `O=C(NC1(C(F)(F)F)N=C(c2ccccc2)N(C2CCCCC2)C1=O)c1ccc(F)cc1` (centres undefined) the survival was inactive: 79%. `Cc1cc(C)n(CCc2nc3c4ccccc4nc(SCc4ccc(Cl)cc4)n3n2)n1` was tested, and the survival was inactive: 74%. `CCOc1ccc(NC(=O)CC2C(=O)N(c3ccc(C)cc3)C(=O)N2C2CCCCC2)cc1` (centres undefined) was tested, and the survival was inactive: 70%. With `Cn1ccc2cc(S(=O)(=O)N3CCCC(C(=O)NCc4ccc(F)cc4)C3)ccc21` (centres undefined) the survival was inactive: 45%. For `COC(=O)c1ccc(C2C=C(c3ccc(Cl)cc3)Nc3nc4ccccc4n32)cc1` (centres undefined), the survival was inactive: 117%. For `CSc1nnc(Cc2ccccc2)n1-c1ccc(C)cc1`, the survival was inactive: 105%. For `N#Cc1cccc(NC(=O)C2CCN(c3cnccn3)CC2)c1`, the survival was inactive: 105%. In the case of `O/N=C/c1cn(-c2ccccc2)nc1-c1ccccc1`, the survival is reported as inactive: 118%. With `CC(=O)Nc1ccc(NC(=O)c2cc3c(=O)n(Cc4cccnc4)ccc3nc2C)cc1` the survival was inactive: 65%. For `CCOc1ccccc1-c1noc(CCCC(=O)Nc2cccc(C(F)(F)F)c2)n1`, the survival was inactive: 67%. With `O=C(CSc1nc(-c2ccc(F)cc2)nc2c1Cc1ccccc1O2)Nc1cccc(C(=O)O)c1` the survival was inactive: 66%. In the case of `CCOC(=O)CCN(c1ccccc1)S(=O)(=O)c1cc(-c2cc(C)no2)ccc1C`, the survival is reported as inactive: 72%. In the case of `CCc1cc2c(cc3c(=O)n(CC(=O)NC4CCCCC4)nc(CC)n32)s1`, the survival is reported as inactive: 85%. With `Cc1cn(C)c(CC(=O)N2CCN(c3cccc(C(F)(F)F)c3)CC2)c1C(=O)O` the survival was inactive: 131%. `Cc1ccc(C(=O)NCC(=O)OCc2cc(=O)n3c(C)csc3n2)cc1` was tested, and the survival was inactive: 66%. With `CC(=O)N1CCc2c(sc3c2c(=O)n(-c2ccccc2C)c(=O)n3CC(=O)c2ccccc2)C1` the survival was inactive: 128%. For `Cc1cc(C)c2oc(C(=O)Nc3c(C)n(C)n(-c4ccccc4)c3=O)cc(=O)c2c1`, the survival was inactive: 86%. For `O=C(NCC(c1cccnc1)N1CCc2ccccc21)c1ccc(F)c(F)c1` (centres undefined), the survival was inactive: 90%. In the case of `Cc1ccc(C(C)C)c(OCC(=O)NCC2(N3CCOCC3)CCCCC2)c1`, the survival is reported as inactive: 83%. For `Cc1cccc(C(=O)Nc2cccc(OCc3cc(=O)n4cc(C)sc4n3)c2)c1`, the survival was inactive: 77%. For `CC1Cc2ccccc2N1C(=O)c1nc2ccccc2s1` (centres undefined), the survival was inactive: 113%. In the case of `Cc1ccc(C)c(NC(=O)Cn2c(=O)n(-c3ccccc3C)c(=O)c3c2c2cc(C)ccc2n3C)c1`, the survival is reported as inactive: 138%. With `CC(C)n1cc2c(c1-c1ccccc1Cl)c(=O)n(C)c(=O)n2C` the survival was inactive: 89%. `CC(=O)Nc1c(O)c2ccccc2[nH]c1=O` was tested, and the survival was inactive: 101%. With `Cc1ccc(-n2cc3c(c2-c2ccccc2Br)c(=O)n(C)c(=O)n3C)cc1N` the survival was inactive: 104%.
